Assay results: the supplement of paper PMC5895741

B1: MS2 coat protein; the commonest letter at each place (parent)
chain: MASNFTQFVLVDNGGTGDVTVAPSNFANGVAEWISSNSRSQAYKVTCSVRQSSAQNRKYTIKVEVPKVATQTVGGVELPVAAWRSYLNMELTIPIFATNSDCELIVKAMQGLLKDGNPIPSAIAANSGIY

Variants of: B1
Test: apparent fitness score (VLP assembly selection enrichment vs plasmid library) (log10 ratio); higher = better expression / assembly into well-formed VLPs
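Note: counts from Illumina MiSeq reads, cDNA of packaged RNA versus plasmid DNA taken before selection, each replicate independent from library construction onward, expression induced with 0.1% arabinose.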

Variant	apparent fitness score (log10)
MASNFTQFVLVDNGGTGDVTVAPSNFANGVAEWISSNSRSQAYKVTCSVRQSSAQRRKYTIKVEVPKVATQTVGGVELPVAAWRSYLNMELTIPIFATNSDCELIVKAMQGLLKDGNPIPSAIAANSGIY [N56R]	-0.721
MASNFTQFVLVDNGGTGDVTVAPSNFANGVAEWISSNSRSQAYKVTCSVRQSSAQSRKYTIKVEVPKVATQTVGGVELPVAAWRSYLNMELTIPIFATNSDCELIVKAMQGLLKDGNPIPSAIAANSGIY [N56S]	-0.603
MASNFTQFVLVDNGGTGDVTVAPSNFANGVAEWISSNSRSQAYKVTCSVRQSSAQTRKYTIKVEVPKVATQTVGGVELPVAAWRSYLNMELTIPIFATNSDCELIVKAMQGLLKDGNPIPSAIAANSGIY [N56T]	-0.128
MASNFTQFVLVDNGGTGDVTVAPSNFANGVAEWISSNSRSQAYKVTCSVRQSSAQVRKYTIKVEVPKVATQTVGGVELPVAAWRSYLNMELTIPIFATNSDCELIVKAMQGLLKDGNPIPSAIAANSGIY [N56V]	< -4
MASNFTQFVLVDNGGTGDVTVAPSNFANGVAEWISSNSRSQAYKVTCSVRQSSAQWRKYTIKVEVPKVATQTVGGVELPVAAWRSYLNMELTIPIFATNSDCELIVKAMQGLLKDGNPIPSAIAANSGIY [N56W]	-1.01
MASNFTQFVLVDNGGTGDVTVAPSNFANGVAEWISSNSRSQAYKVTCSVRQSSAQYRKYTIKVEVPKVATQTVGGVELPVAAWRSYLNMELTIPIFATNSDCELIVKAMQGLLKDGNPIPSAIAANSGIY [N56Y]	-0.538
MASNFTQFVLVDNGGTGDVTVAPSNFANGVAEWISSNSRSQAYKVTCSVRQSSAQNAKYTIKVEVPKVATQTVGGVELPVAAWRSYLNMELTIPIFATNSDCELIVKAMQGLLKDGNPIPSAIAANSGIY [R57A]	< -4
MASNFTQFVLVDNGGTGDVTVAPSNFANGVAEWISSNSRSQAYKVTCSVRQSSAQNCKYTIKVEVPKVATQTVGGVELPVAAWRSYLNMELTIPIFATNSDCELIVKAMQGLLKDGNPIPSAIAANSGIY [R57C]	-0.192
MASNFTQFVLVDNGGTGDVTVAPSNFANGVAEWISSNSRSQAYKVTCSVRQSSAQNDKYTIKVEVPKVATQTVGGVELPVAAWRSYLNMELTIPIFATNSDCELIVKAMQGLLKDGNPIPSAIAANSGIY [R57D]	-1.53
MASNFTQFVLVDNGGTGDVTVAPSNFANGVAEWISSNSRSQAYKVTCSVRQSSAQNEKYTIKVEVPKVATQTVGGVELPVAAWRSYLNMELTIPIFATNSDCELIVKAMQGLLKDGNPIPSAIAANSGIY [R57E]	-0.32
MASNFTQFVLVDNGGTGDVTVAPSNFANGVAEWISSNSRSQAYKVTCSVRQSSAQNFKYTIKVEVPKVATQTVGGVELPVAAWRSYLNMELTIPIFATNSDCELIVKAMQGLLKDGNPIPSAIAANSGIY [R57F]	0.153
MASNFTQFVLVDNGGTGDVTVAPSNFANGVAEWISSNSRSQAYKVTCSVRQSSAQNGKYTIKVEVPKVATQTVGGVELPVAAWRSYLNMELTIPIFATNSDCELIVKAMQGLLKDGNPIPSAIAANSGIY [R57G]	-1.46
MASNFTQFVLVDNGGTGDVTVAPSNFANGVAEWISSNSRSQAYKVTCSVRQSSAQNHKYTIKVEVPKVATQTVGGVELPVAAWRSYLNMELTIPIFATNSDCELIVKAMQGLLKDGNPIPSAIAANSGIY [R57H]	< -4
MASNFTQFVLVDNGGTGDVTVAPSNFANGVAEWISSNSRSQAYKVTCSVRQSSAQNIKYTIKVEVPKVATQTVGGVELPVAAWRSYLNMELTIPIFATNSDCELIVKAMQGLLKDGNPIPSAIAANSGIY [R57I]	-0.238
MASNFTQFVLVDNGGTGDVTVAPSNFANGVAEWISSNSRSQAYKVTCSVRQSSAQNKKYTIKVEVPKVATQTVGGVELPVAAWRSYLNMELTIPIFATNSDCELIVKAMQGLLKDGNPIPSAIAANSGIY [R57K]	-1.31
MASNFTQFVLVDNGGTGDVTVAPSNFANGVAEWISSNSRSQAYKVTCSVRQSSAQNLKYTIKVEVPKVATQTVGGVELPVAAWRSYLNMELTIPIFATNSDCELIVKAMQGLLKDGNPIPSAIAANSGIY [R57L]	-0.818
MASNFTQFVLVDNGGTGDVTVAPSNFANGVAEWISSNSRSQAYKVTCSVRQSSAQNMKYTIKVEVPKVATQTVGGVELPVAAWRSYLNMELTIPIFATNSDCELIVKAMQGLLKDGNPIPSAIAANSGIY [R57M]	-0.321
MASNFTQFVLVDNGGTGDVTVAPSNFANGVAEWISSNSRSQAYKVTCSVRQSSAQNNKYTIKVEVPKVATQTVGGVELPVAAWRSYLNMELTIPIFATNSDCELIVKAMQGLLKDGNPIPSAIAANSGIY [R57N]	< -4
MASNFTQFVLVDNGGTGDVTVAPSNFANGVAEWISSNSRSQAYKVTCSVRQSSAQNPKYTIKVEVPKVATQTVGGVELPVAAWRSYLNMELTIPIFATNSDCELIVKAMQGLLKDGNPIPSAIAANSGIY [R57P]	-1.34
MASNFTQFVLVDNGGTGDVTVAPSNFANGVAEWISSNSRSQAYKVTCSVRQSSAQNQKYTIKVEVPKVATQTVGGVELPVAAWRSYLNMELTIPIFATNSDCELIVKAMQGLLKDGNPIPSAIAANSGIY [R57Q]	0.39
MASNFTQFVLVDNGGTGDVTVAPSNFANGVAEWISSNSRSQAYKVTCSVRQSSAQNSKYTIKVEVPKVATQTVGGVELPVAAWRSYLNMELTIPIFATNSDCELIVKAMQGLLKDGNPIPSAIAANSGIY [R57S]	-0.94
MASNFTQFVLVDNGGTGDVTVAPSNFANGVAEWISSNSRSQAYKVTCSVRQSSAQNTKYTIKVEVPKVATQTVGGVELPVAAWRSYLNMELTIPIFATNSDCELIVKAMQGLLKDGNPIPSAIAANSGIY [R57T]	-1.18
